In the supplement of paper PMC3334620:
Whole data set: some 33,000 sequences, median “E-score (-0.5 to 0.5)” near -0.043, cut for the highest 2% near 0.37. Some of the results follow.

These sequences were tested against T1, Upc2 (UniProt Q12151) (assay: PBM E-score (8-mer binding enrichment) (E-score (-0.5 to 0.5)); higher = stronger / more preferred TF binding; most listed sequences are background and not binding sites). Conditions: protein concentration: 200 nM; construct: GST-full length.
T1 sequence: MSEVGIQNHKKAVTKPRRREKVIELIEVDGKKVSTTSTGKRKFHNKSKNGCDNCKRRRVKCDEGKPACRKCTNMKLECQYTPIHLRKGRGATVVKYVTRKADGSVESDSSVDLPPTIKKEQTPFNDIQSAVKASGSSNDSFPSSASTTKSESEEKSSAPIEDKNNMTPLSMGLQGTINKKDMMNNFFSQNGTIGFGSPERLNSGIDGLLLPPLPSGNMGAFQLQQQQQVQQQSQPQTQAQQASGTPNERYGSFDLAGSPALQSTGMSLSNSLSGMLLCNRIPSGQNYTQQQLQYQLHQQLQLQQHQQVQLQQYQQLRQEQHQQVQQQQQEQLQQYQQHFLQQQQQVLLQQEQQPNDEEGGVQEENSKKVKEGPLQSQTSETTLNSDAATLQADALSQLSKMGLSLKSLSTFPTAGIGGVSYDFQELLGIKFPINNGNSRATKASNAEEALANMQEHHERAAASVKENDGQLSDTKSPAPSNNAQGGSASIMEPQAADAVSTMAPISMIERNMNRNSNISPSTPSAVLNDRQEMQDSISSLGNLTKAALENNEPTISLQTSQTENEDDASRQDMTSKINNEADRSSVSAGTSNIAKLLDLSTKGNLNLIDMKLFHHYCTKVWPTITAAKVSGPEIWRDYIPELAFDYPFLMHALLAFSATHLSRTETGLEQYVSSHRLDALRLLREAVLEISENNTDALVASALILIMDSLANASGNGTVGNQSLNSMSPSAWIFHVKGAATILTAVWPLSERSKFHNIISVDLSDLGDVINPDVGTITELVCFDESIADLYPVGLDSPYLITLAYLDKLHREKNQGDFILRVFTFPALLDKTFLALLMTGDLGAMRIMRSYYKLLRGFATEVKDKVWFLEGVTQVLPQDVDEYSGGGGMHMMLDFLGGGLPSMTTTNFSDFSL
Outline: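 Full-length yeast transcription factors or their DNA-binding domains, GST-tagged and expressed with PURExpress, were applied at about 100-200 nM to universal all-10-mer Agilent arrays. These arrays had been made double-stranded by primer extension on fresh or once-stripped slides. Detection used fluorescent anti-GST, normalisation used masliner, and E-scores for ungapped eight-base words pooled with reverse complements came from the Universal PBM Analysis Suite.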

Row | Sequence | PBM E-score
1 | CCCGAGGC | -0.1
2 | ATGCCAAG | -0.107
3 | CCAACTCG | 0.0935
4 | ACGGGTTA | 0.259
5 | CCTGCCGA | -0.16
6 | TCCATAGA | -0.3
7 | GTACACTA | 0.0604
8 | CTATGGCC | -0.34
9 | ACAAATGG | 0.0454
10 | CTGTACTA | -0.0771
11 | CTACACGC | -0.257
12 | AAGTTACA | -0.134
13 | TAGTGTGA | 0.0555
14 | AGTCGCGA | 0.175
15 | AGCTATCC | -0.194
16 | AGGTTCAT | -0.041
17 | CGTAACTC | 0.237
18 | CATACCAC | 0.0195
19 | CCGCGTGC | -0.139
20 | GATTAAAA | 0.0648
21 | CACATGGC | -0.0315
22 | AGAAGACC | -0.236
23 | CATATTTC | 0.00061
24 | CCGATTGC | 0.00685
25 | CGTTCCCA | 0.373

Row | Sequence | PBM E-score
26 | CAACAATG | -0.0499
27 | CCCCATAG | -0.104
28 | GTGGACAC | -0.158
29 | AGCATCAG | 0.00127
30 | ATAGTCCA | -0.171
31 | CCGTCGAA | 0.0446
32 | ACGAGGTA | 0.382
33 | AAATATTA | 0.229
34 | ATCAATCC | -0.217
35 | ACACTATG | -0.0971
36 | ACTTGTAT | -0.0309
37 | GGGCAACC | -0.112
38 | AGCTCAAG | -0.193
39 | CTATAGGC | -0.135
40 | CTTGAAAG | -0.0901
41 | CCACCGAG | -0.23
42 | GCGCGAGC | -0.13
43 | TACCCAAA | 0.0123
44 | CCGCAAAC | 0.174
45 | GCACGCGA | -0.0589
46 | CTAAGTCC | -0.26
47 | GGGGTGAC | -0.0843
48 | CTGAGTTC | 0.0433
49 | CTCACTCC | -0.322
50 | GCACTACC | 0.0706

Row | Sequence | PBM E-score
51 | GAATGAAC | 0.145
52 | AGGTAACA | -0.11
53 | GCAATCCC | -0.067
54 | AAGCAGCG | -0.0244
55 | ACAGTCGA | -0.0401
56 | AAAAGAAA | 0.102
57 | GAACCCGA | 0.0311
58 | CAGAACGC | -0.0286
59 | CCCTCGGC | -0.0234
60 | GAGTCTCC | -0.166
61 | CAAATCTA | 0.0813
62 | GCAAACAC | -0.00637
63 | CTGTTCTC | 0.0583
64 | CGCGAACC | 0.192
65 | CGACAAAG | 0.16
66 | AAGTTTTC | 0.1
67 | ATTCCTGC | -0.0454
68 | CATGAAGA | -0.0719
69 | AAGGGAGT | -0.268
70 | GTCCTATA | 0.143
71 | AGACGAAG | 0.0695
72 | AAATGCAA | -0.148
73 | CGACGATA | 0.169
74 | AACGTGGA | 0.139
75 | ACGCAAAG | 0.0103

Row | Sequence | PBM E-score
76 | AAAGTCCT | -0.142
77 | GTGTCTAA | -0.0973
78 | ACGACTTG | 0.214
79 | CTGCTTAC | 0.0628
80 | AGCCCACG | 0.0285
81 | ACAACAGC | -0.059
82 | AGTTCTGA | -0.229
83 | CGCGTATC | 0.253
84 | ATTCCGGG | -0.196
85 | AGGTAATC | -0.0565
86 | AAAGGGCA | -0.298
87 | ATAAGACA | 0.158
88 | CAACTTCA | -0.0217
89 | TGGGAACA | -0.162
90 | GAGAGACC | -0.274
91 | ACGTCCGC | 0.0785
92 | ACTCGAAA | 0.032
93 | TACATCTA | 0.0402
94 | ACAACCGT | 0.177
95 | ACAACCTA | -0.0634
96 | ACATGGCC | -0.106
97 | TTGACCAA | -0.179
98 | CGAAGGAG | 0.0415
99 | ACGAGTCG | 0.384
100 | CGTAACAA | 0.218

Row | Sequence | PBM E-score
101 | ATAAACTA | 0.0359
102 | ATTCTGTC | 0.111
103 | ACATAGCT | -0.218
104 | GTCTCTGA | 0.0241
105 | CGCTTTAA | 0.0631
106 | AATGTCAC | -0.182
107 | TCACTTAA | -0.0131
108 | ACCATTAG | -0.138
109 | GTAATACA | 0.111
110 | ATATTGAC | -0.126
111 | AAGCCCCT | -0.0302
112 | GTTGTCAA | -0.00594
113 | GGAATACC | -0.106
114 | AGAAAACC | 0.0183
115 | GCTATTAA | -0.0587
116 | CCCGGTCA | -0.343
117 | GCACATGA | -0.186
118 | GACGCGGC | -0.167
119 | CAAGCGGC | -0.119
120 | ACTTGACA | -0.161
121 | CTCTTTAC | 0.134
122 | CGACGTTA | 0.197
123 | ACTACGGC | -0.155
124 | AATGGATG | -0.0585
125 | ACAGGTAA | -0.0299

Row | Sequence | PBM E-score
126 | ACACAACA | 0.0766
127 | AATGTTTC | -0.0346
128 | TCCCGAAA | -0.0081
129 | AGTGGTAT | -0.078
130 | AATCGCCA | -0.0984
131 | TCAAGGAA | -0.169
132 | AAGAGTGC | 0.084
133 | ACAAGTAT | 0.0931
134 | AATTTGGT | 0.0769
135 | ATGCTCCG | -0.0329
136 | ACCACCCA | -0.115
137 | AGACTTAC | 0.00516
138 | GTTCTGGA | 0.194
139 | CTCGTCCC | -0.109
140 | CTCCAGCC | -0.143
141 | ATTATTTG | 0.103
142 | ACCTTTCG | 0.0612
143 | CTTCCCAA | -0.0805
144 | GATATAAC | 0.0872
145 | GTGGGGGA | -0.0719
146 | ATCACCCG | -0.0602
147 | CGATTGGC | -0.0394
148 | AAGTAAGC | -0.0673
149 | CCGAGGTC | 0.0232
150 | TCTCCTCA | -0.127

Row | Sequence | PBM E-score
151 | GGAGTCTA | -0.43
152 | ATCCTTAA | -0.108
153 | GCCTAAGA | -0.168
154 | GAGTCCGA | 0.021
155 | GTGACTAA | -0.14
156 | ACCCACGA | -0.072
157 | GAGGCTGA | -0.376
158 | ATATCTCA | 0.0282
159 | GGCGAGTA | -0.122
160 | TACGAGTA | 0.453
161 | GAAGTAGC | -0.138
162 | AACCACAT | -0.0732
163 | GATGGGGA | -0.161
164 | GTGGCCAA | -0.135
165 | GGCCTTTA | -0.0177
166 | ACCTGCGT | 0.0477
167 | CGCATACG | 0.439
168 | CCTTAAGG | 0.0757
169 | GGGTTGAA | -0.00166
170 | ATCAGTCC | -0.324
171 | CGCTAGGA | -0.174
172 | CGAGTAGA | 0.185
